The supplement of paper PMC9151546
Many values rest on one well or one pass, so single values are uncertain.

Key:
CHO-K1 [1] = assay: relative survival (nuclei to bead ratio vs DMSO control) (% of vehicle control); higher = more surviving cells
Description: (§1)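 Flow-cytometric in vitro micronucleus assay (Litron MicroFlow) in CHO-K1 cells in 96-well plates, 19 concentrations (4.5-200 µM, n=1 per concentration). Without S9, cells were exposed for 24 h and sampled at 48 h. With Aroclor 1254-induced rat liver S9, cells were exposed for 3-4 h and sampled at 27-28 h. Read-outs are %MN and %hypodiploid nuclei relative to nucleated events, and relative survival as the nuclei-to-bead ratio versus the 1% DMSO vehicle control (x100).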

CHO-K1 [2] = assay: micronucleus frequency (% of nucleated events); higher = more micronuclei (genotoxic)
CHO-K1 [3] = assay: hypodiploid nuclei frequency (% of nucleated events); higher = more hypodiploid events (aneugenic)
Description: as §1
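For hypodiploid nuclei frequency (% of nucleated events) in this document: hypodiploid nuclei gated on a flow cytometer with 488 nm excitation after SYTOX Green staining, cultures at 37 °C, positive controls vinblastine without S9 and cyclophosphamide with S9.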
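For micronucleus frequency (% of nucleated events) in this document: cells lysed with nuclei stained by SYTOX Green, then micronucleus-gated events counted against nucleated events by flow cytometry with 488 nm excitation.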
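For relative survival (nuclei to bead ratio vs DMSO control) in this document: Lysed-cell nuclei stained with SYTOX Green and counted against counting beads by flow cytometry at 488 nm excitation, with vinblastine (no S9) and cyclophosphamide (plus S9) as positive controls.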

COc1ccccc1N [2-Anisidine]
Details | hypodiploid nuclei frequency, CHO-K1 [3] [%] | micronucleus frequency, CHO-K1 [2] [%] | relative survival, CHO-K1 [1]
concentration: 4.48 (µM), S9 metabolic activation: with S9, exposure time: 3-4 hours | 0.18 | 1.12 | 122
concentration: 4.48 (µM), S9 metabolic activation: without S9, exposure time: 24 hours | 0.94 | 1.18 | 110
concentration: 5.6 (µM), S9 metabolic activation: with S9, exposure time: 3-4 hours | 0.2 | 1.12 | 118
concentration: 5.6 (µM), S9 metabolic activation: without S9, exposure time: 24 hours | 0.8 | 1.2 | 118
concentration: 7 (µM), S9 metabolic activation: with S9, exposure time: 3-4 hours | 0.12 | 0.98 | 114
concentration: 7 (µM), S9 metabolic activation: without S9, exposure time: 24 hours | 0.82 | 1 | 113
concentration: 8.75 (µM), S9 metabolic activation: with S9, exposure time: 3-4 hours | 0.16 | 1.66 | 96.7
concentration: 8.75 (µM), S9 metabolic activation: without S9, exposure time: 24 hours | 0.78 | 1.16 | 106
concentration: 10.9 (µM), S9 metabolic activation: with S9, exposure time: 3-4 hours | 0.28 | 1.16 | 107
concentration: 10.9 (µM), S9 metabolic activation: without S9, exposure time: 24 hours | 0.92 | 1.42 | 111
concentration: 13.7 (µM), S9 metabolic activation: with S9, exposure time: 3-4 hours | 0.14 | 1.14 | 93.7
concentration: 13.7 (µM), S9 metabolic activation: without S9, exposure time: 24 hours | 1.38 | 1.1 | 103
concentration: 17.1 (µM), S9 metabolic activation: with S9, exposure time: 3-4 hours | 0.34 | 1.2 | 93.1
concentration: 17.1 (µM), S9 metabolic activation: without S9, exposure time: 24 hours | 1.08 | 1.2 | 117
concentration: 21.4 (µM), S9 metabolic activation: with S9, exposure time: 3-4 hours | 0.28 | 1.04 | 98.9
concentration: 21.4 (µM), S9 metabolic activation: without S9, exposure time: 24 hours | 0.86 | 1.06 | 94.7
concentration: 26.7 (µM), S9 metabolic activation: with S9, exposure time: 3-4 hours | 0.24 | 1.06 | 122
concentration: 26.7 (µM), S9 metabolic activation: without S9, exposure time: 24 hours | 0.9 | 1.44 | 108
concentration: 33.4 (µM), S9 metabolic activation: with S9, exposure time: 3-4 hours | 0.42 | 1.1 | 136
concentration: 33.4 (µM), S9 metabolic activation: without S9, exposure time: 24 hours | 0.76 | 1.86 | 122
concentration: 41.7 (µM), S9 metabolic activation: with S9, exposure time: 3-4 hours | 0.12 | 1.18 | 132
concentration: 41.7 (µM), S9 metabolic activation: without S9, exposure time: 24 hours | 1.02 | 1.32 | 115
concentration: 52.2 (µM), S9 metabolic activation: with S9, exposure time: 3-4 hours | 0.26 | 1 | 139
concentration: 52.2 (µM), S9 metabolic activation: without S9, exposure time: 24 hours | 0.8 | 1.52 | 112
concentration: 65.2 (µM), S9 metabolic activation: with S9, exposure time: 3-4 hours | 0.26 | 1 | 124
concentration: 65.2 (µM), S9 metabolic activation: without S9, exposure time: 24 hours | 0.98 | 1.34 | 106
concentration: 81.5 (µM), S9 metabolic activation: with S9, exposure time: 3-4 hours | 0.16 | 0.76 | 116
concentration: 81.5 (µM), S9 metabolic activation: without S9, exposure time: 24 hours | 1.2 | 1.52 | 101
concentration: 102 (µM), S9 metabolic activation: with S9, exposure time: 3-4 hours | 0.22 | 1 | 118
concentration: 102 (µM), S9 metabolic activation: without S9, exposure time: 24 hours | 1.28 | 1.98 | 102
concentration: 127 (µM), S9 metabolic activation: with S9, exposure time: 3-4 hours | 0.34 | 0.9 | 118
concentration: 127 (µM), S9 metabolic activation: without S9, exposure time: 24 hours | 1.62 | 1.54 | 106
concentration: 159 (µM), S9 metabolic activation: with S9, exposure time: 3-4 hours | 0.18 | 1 | 98.5
concentration: 159 (µM), S9 metabolic activation: without S9, exposure time: 24 hours | 1.9 | 1.9 | 99.5
concentration: 199 (µM), S9 metabolic activation: with S9, exposure time: 3-4 hours | 0.26 | 0.98 | 103
concentration: 199 (µM), S9 metabolic activation: without S9, exposure time: 24 hours | 2.42 | 2 | 91

CC(C)(c1cc(Br)c(O)c(Br)c1)c1cc(Br)c(O)c(Br)c1 [3,3',5,5'-Tetrabromobisphenol A]
Details | hypodiploid nuclei frequency, CHO-K1 [3] [%] | micronucleus frequency, CHO-K1 [2] [%] | relative survival, CHO-K1 [1]
concentration: 4.3 (µM), S9 metabolic activation: with S9, exposure time: 3-4 hours | 0.54 | 2.22 | 118
concentration: 4.3 (µM), S9 metabolic activation: without S9, exposure time: 24 hours | 0.44 | 1.06 | 83.6
concentration: 5.38 (µM), S9 metabolic activation: with S9, exposure time: 3-4 hours | 0.14 | 0.98 | 115
concentration: 5.38 (µM), S9 metabolic activation: without S9, exposure time: 24 hours | 0.3 | 1.3 | 111
concentration: 6.72 (µM), S9 metabolic activation: with S9, exposure time: 3-4 hours | 0.28 | 1.7 | 107
concentration: 6.72 (µM), S9 metabolic activation: without S9, exposure time: 24 hours | 0.48 | 1.04 | 135
concentration: 8.4 (µM), S9 metabolic activation: with S9, exposure time: 3-4 hours | 0.24 | 1.46 | 129
concentration: 8.4 (µM), S9 metabolic activation: without S9, exposure time: 24 hours | 0.4 | 1.2 | 124
concentration: 10.5 (µM), S9 metabolic activation: with S9, exposure time: 3-4 hours | 0.2 | 0.9 | 116
concentration: 10.5 (µM), S9 metabolic activation: without S9, exposure time: 24 hours | 0.34 | 0.86 | 92.2
concentration: 13.1 (µM), S9 metabolic activation: with S9, exposure time: 3-4 hours | 0.24 | 1.1 | 128
concentration: 13.1 (µM), S9 metabolic activation: without S9, exposure time: 24 hours | 0.44 | 0.94 | 149
concentration: 16.4 (µM), S9 metabolic activation: with S9, exposure time: 3-4 hours | 0.32 | 0.82 | 102
concentration: 16.4 (µM), S9 metabolic activation: without S9, exposure time: 24 hours | 0.48 | 1.08 | 140
concentration: 20.5 (µM), S9 metabolic activation: with S9, exposure time: 3-4 hours | 0.26 | 0.84 | 103
concentration: 20.5 (µM), S9 metabolic activation: without S9, exposure time: 24 hours | 0.34 | 1.26 | 114
concentration: 25.6 (µM), S9 metabolic activation: with S9, exposure time: 3-4 hours | 0.2 | 1.42 | 116
concentration: 25.6 (µM), S9 metabolic activation: without S9, exposure time: 24 hours | 0.58 | 0.92 | 52.3
concentration: 32 (µM), S9 metabolic activation: with S9, exposure time: 3-4 hours | 0.62 | 1.48 | 99.8
concentration: 32 (µM), S9 metabolic activation: without S9, exposure time: 24 hours | 0.52 | 1.1 | 144
concentration: 40.1 (µM), S9 metabolic activation: with S9, exposure time: 3-4 hours | 0.9 | 2.56 | 85
concentration: 40.1 (µM), S9 metabolic activation: without S9, exposure time: 24 hours | 0.68 | 1.82 | 67.1
concentration: 50.1 (µM), S9 metabolic activation: with S9, exposure time: 3-4 hours | 0.6 | 1.96 | 82.2
concentration: 50.1 (µM), S9 metabolic activation: without S9, exposure time: 24 hours | 1.12 | 1.3 | 96
concentration: 62.6 (µM), S9 metabolic activation: with S9, exposure time: 3-4 hours | 0.54 | 6.82 | 62.3
concentration: 62.6 (µM), S9 metabolic activation: without S9, exposure time: 24 hours | 1.36 | 1.58 | 82.3
concentration: 78.2 (µM), S9 metabolic activation: with S9, exposure time: 3-4 hours | – | – | 31.3
concentration: 78.2 (µM), S9 metabolic activation: without S9, exposure time: 24 hours | 4.28 | 4.12 | 54.3
concentration: 98 (µM), S9 metabolic activation: without S9, exposure time: 24 hours | 8.61 | 5.66 | 41.3
concentration: 122 (µM), S9 metabolic activation: with S9, exposure time: 3-4 hours | – | – | 8.34
concentration: 122 (µM), S9 metabolic activation: without S9, exposure time: 24 hours | 3.82 | 3.85 | 44.6
concentration: 153 (µM), S9 metabolic activation: without S9, exposure time: 24 hours | – | – | 37.9
concentration: 191 (µM), S9 metabolic activation: without S9, exposure time: 24 hours | – | – | 18
